# About 14,000 (4.5%) of roughly 310,000 compounds showed an effect of 50% or more. The effect is printed as a negative number. The list shows a part of the results.
# Target: human ether-à-go-go-related gene (hERG) potassium channel (human, UniProt Q12809)
# Test: primary screen, population patch clamp on CHO cells stably expressing hERG
# 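Also: peak tail current of the secondary pulse compared with the same well before compound.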
# Sequence of human ether-à-go-go-related gene (hERG) potassium channel (Q12809 whole entry, looked up): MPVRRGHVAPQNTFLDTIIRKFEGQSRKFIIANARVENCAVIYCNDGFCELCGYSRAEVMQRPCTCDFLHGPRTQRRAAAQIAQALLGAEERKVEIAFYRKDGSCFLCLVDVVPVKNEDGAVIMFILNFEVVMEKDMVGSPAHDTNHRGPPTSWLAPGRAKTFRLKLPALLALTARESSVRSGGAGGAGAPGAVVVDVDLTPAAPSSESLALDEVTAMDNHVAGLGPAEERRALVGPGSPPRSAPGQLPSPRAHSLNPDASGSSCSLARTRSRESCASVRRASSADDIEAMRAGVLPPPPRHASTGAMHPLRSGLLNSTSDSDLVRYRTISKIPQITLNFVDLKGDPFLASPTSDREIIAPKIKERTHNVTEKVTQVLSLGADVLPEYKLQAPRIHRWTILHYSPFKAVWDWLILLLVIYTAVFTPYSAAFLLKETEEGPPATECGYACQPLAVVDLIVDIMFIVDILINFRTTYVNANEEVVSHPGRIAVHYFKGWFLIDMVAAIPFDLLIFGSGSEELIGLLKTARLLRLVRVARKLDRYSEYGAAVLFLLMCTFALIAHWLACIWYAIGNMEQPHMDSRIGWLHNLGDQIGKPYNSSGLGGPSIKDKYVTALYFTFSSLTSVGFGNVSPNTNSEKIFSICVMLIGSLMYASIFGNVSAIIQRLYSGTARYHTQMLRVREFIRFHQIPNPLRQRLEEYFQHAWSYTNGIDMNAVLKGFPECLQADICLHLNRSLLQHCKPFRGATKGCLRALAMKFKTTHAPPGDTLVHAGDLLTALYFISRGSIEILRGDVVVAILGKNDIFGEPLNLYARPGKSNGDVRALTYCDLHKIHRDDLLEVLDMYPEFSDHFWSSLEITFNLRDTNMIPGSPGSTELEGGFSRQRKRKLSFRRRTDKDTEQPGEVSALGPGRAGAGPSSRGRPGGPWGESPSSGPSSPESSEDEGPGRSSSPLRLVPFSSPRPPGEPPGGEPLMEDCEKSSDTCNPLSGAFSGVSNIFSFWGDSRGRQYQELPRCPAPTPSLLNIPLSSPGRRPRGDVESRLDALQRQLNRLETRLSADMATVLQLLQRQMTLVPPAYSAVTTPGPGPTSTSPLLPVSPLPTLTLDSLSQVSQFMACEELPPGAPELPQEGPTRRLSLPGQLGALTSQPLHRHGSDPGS
row,SMILES,"hERG current change (%, negative = inhibition) at 10uM"
1,CCOc1ccc(CO[C@@H]2O[C@H](CO)[C@@H](O)[C@H](O)[C@H]2NC(C)=O)cc1OC,20.9%
2,Cc1ccnc(NC(=O)C2CCN(S(=O)(=O)c3ccc(Cl)c(C(F)(F)F)c3)CC2)c1,-14.2%
3,Cc1ccc(SCC2(O)CCN(C(=O)c3ccc(Cl)cc3)CC2)cc1,-44%
4,O=C(COc1ncnc2ccccc12)NCc1ccc2c(c1)OCO2,-4.09%
5,Cc1ccc(C)c(S(=O)(=O)N2CCCCC2CCNC(=O)C(=O)NCc2ccccc2)c1 (stereo not drawn),-15.8%
6,Cc1ccccc1N1CCN(C(=O)c2ccccc2NC(=O)C2CC=CCC2C(=O)O)CC1 (stereo not drawn),-3.7%
7,Oc1ccccc1-c1nc(N2CCN(Cc3ccccc3)CC2)c2ccccc2n1,10.5%
8,COc1ccc(C(=O)Nc2ccccc2C(=O)N2CCCCCC2)cc1OC,-10.5%
9,CC(C)(C)NC(=O)CN(C(=O)C(=O)Nc1ccc2c(c1)OCCO2)C1CC1,10.3%
10,O=C(Nc1ccccc1F)c1ccc(OCc2ccccc2)cc1,4.37%
11,Cc1ccc(NC(=O)c2cccc3c2C(=O)N(C2CCCCC2)C3)cc1,13.2%
12,COc1ccc(CC(=O)Nc2c3c(nn2-c2cccc(Cl)c2)CS(=O)(=O)C3)cc1,-51.7%
13,COc1ccc(N2CCN(C(=O)c3cc(=O)c4cc(C)c(C)cc4o3)CC2)cc1,0.819%
14,CCOc1ccc(N2C(=O)CC(/C=C3/N(C)c4ccccc4C3(C)C)C2=O)cc1 (stereo not drawn),17.3%
15,COc1cc(S(=O)(=O)N2CCN(C(=O)c3ccco3)CC2)c(OC)cc1C,6.03%
16,C=CCNc1oc(-c2cccc3ccccc23)nc1C#N,-10.2%
17,CCN1CCCC1CNC(=O)C(NC(=O)C1CCC(C)CC1)C(C)C (stereo not drawn),8.48%
18,COc1ccc(OCC(=O)Nc2cc(-c3nn4c(C)nnc4s3)ccc2C)cc1,-4.85%
19,CCOC(=O)c1c(-c2ccc(C)o2)csc1NC(=O)COC(=O)c1cccs1,-12%
20,C=CCn1c(=S)sc2c(=O)[nH]cnc21,12.4%
21,Cc1nnc(SCc2cccc([N+](=O)[O-])c2)s1,-0.735%
22,COc1ccc(OCCn2ccnc2)cc1,12.4%

row,SMILES,"hERG current change (%, negative = inhibition) at 10uM"
1,COc1cccc(NC(=O)CC2C(=O)NC3CCCCC3N2C(=O)c2ccccc2)c1 (stereo not drawn),16.9%
2,Cc1ccc(NC(=O)C(=O)NCCN2CCN(C(=O)C(c3ccccc3)c3ccccc3)CC2)cc1,-9.93%
3,CCC(C)NC(=O)C(=O)NCc1ccncc1 (stereo not drawn),15.9%
4,COc1ccccc1NC(=S)N1CCc2cc(OC)c(OC)cc2C1,-0.62%
5,Cc1cc(-n2c(C)cc(C(=O)CSc3ccc4c(c3)OCCO4)c2C)no1,1.7%
6,CCCCCn1c(SCC(=O)OCC)nc2cc(C(=O)N3CCC(C(N)=O)CC3)ccc2c1=O,-58.4%
7,Nc1nc(COC(=O)C2CC(=O)N(Cc3ccccc3Cl)C2)nc(Nc2ccccc2)n1 (stereo not drawn),-55.6%
8,CCCc1ccc2oc(C(=O)NCCCN3CCOCC3)c(C)c2c1,-42.9%
9,Cc1ccc(C(=O)COc2cccc(NC(=O)c3ccco3)c2)cc1,-4.71%
10,CCN(CC)S(=O)(=O)c1ccc2nc(NC(=O)c3ccco3)sc2c1,-23.5%
11,COC(=O)c1ccc(C2C(C#N)=C(N)Oc3cc(C)n(C)c(=O)c32)cc1 (stereo not drawn),9.41%
12,CCOC(=O)c1cc(-c2ccc(N3CCOCC3)cc2)nn1-c1ccc(F)cc1F,-40.2%
13,CC(=O)Nc1ccc(NC(=O)CN(c2cccc([N+](=O)[O-])c2)S(C)(=O)=O)cc1,15.6%
14,COc1ccc(N(CC(=O)NCc2ccc(C)cc2)S(=O)(=O)c2ccccc2[N+](=O)[O-])c(OC)c1,8.6%
15,CCCCn1c(-c2csc(C(C)C)c2)n[nH]c1=S,20.9%
16,COC(=O)C1CCN(C(=O)Cc2c(OC)ccc3cc(Br)ccc23)CC1,-17.3%
17,CCn1c(/C=N/Nc2ccc(C(=O)O)cc2)nc2ccccc21,13.1%
18,Cc1ccc(-n2[nH]c(C)c(/C=N/NC(=O)c3ccc(O)cc3O)c2=O)cc1,28.3%
19,CCOC(=O)C1=C(C)Nc2nc(SCC(=O)OC)nn2C1c1cc(F)cc(F)c1 (stereo not drawn),-5.97%
20,Cc1ccc(-c2cc(C(=O)Nc3ccc(S(=O)(=O)Nc4ncccn4)cc3)c3ccccc3n2)cc1,4.88%
21,CCn1c(-c2ccc(-c3ccccc3)cc2)c[nH]c1=S,7.16%
22,CCC(Oc1ccccc1OC)C(=O)Nc1ccc2c(c1)OCCO2 (stereo not drawn),-11.5%

row,SMILES,"hERG current change (%, negative = inhibition) at 10uM"
1,Cc1ccc2occ(/C=C/C(=O)O)c(=O)c2c1,-3.44%
2,CC(C)(C)NC(=O)C(OC(=O)Cn1nnc(-c2ccc(F)cc2)n1)c1ccncc1 (stereo not drawn),29.9%
3,Cc1ccc(SCc2ccc(C(=O)NCc3cccnc3)cc2)cc1,3.85%
4,CCc1ccccc1NC(=O)COC(=O)c1cccs1,15.7%
5,Cc1cccc(OCC(=O)N2CCN(C(=O)c3cccs3)CC2)c1,-7.23%
6,O=C(O)c1ccccc1-c1ccc(C=C2C(=O)N(c3ccccc3)C(=S)N(c3ccccc3)C2=O)o1,9.37%
7,CC(=O)c1cccc(NC(=O)c2ccc3c(c2)OCO3)c1,14.4%
8,O=C(COC(=O)c1n[nH]c2ccccc12)Nc1ccc([N+](=O)[O-])cc1,5.33%
9,COC(=O)CCCC1=CC2=C(c3ccccc3)C(=O)C(C)(OC(=O)C3CCCC3)C(=O)C2=CN1CCc1ccccn1 (stereo not drawn),-3.78%
10,O=c1c2ccccc2oc2ncccc12,-5.57%
11,CS(=O)(=O)N1CCN(C2Cc3ccccc3C2)CC1.O=C(O)C(=O)O,-14.1%
12,CCCSc1nc(C)c(CC(=O)OCC)c(=O)[nH]1,-9.61%
13,O=[N+]([O-])c1ccc(Oc2ccc(OCc3ccccc3)cc2)nc1,6.84%
14,Cc1nc(-c2ccccc2)sc1C(=O)CSc1ccc(Cl)cc1,8.43%
15,O=C(CCCN1C(=O)/C(=C\c2cccs2)SC1=S)Nc1cccc(C(=O)O)c1,9.57%
16,CCCn1c(N)cc(=O)n(C)c1=O,10.7%
17,CN1CCN(c2nc3c(c(=O)[nH]c(=O)n3C)n2Cc2cccc3ccccc23)CC1,-27.6%
18,C/C(N)=C(\C#N)C(=O)NCCc1ccccn1,20.5%
19,N#CCC1c2ccccc2CCN1C(=O)Nc1ccc(C(F)(F)F)cc1 (stereo not drawn),-30.4%
20,CN(Cc1nc(CCc2ccccc2)no1)Cc1cccs1,-21.6%
21,CC1=CC=CC2=NC(=O)CC(C)(C(=O)O)N12 (stereo not drawn),11.3%
22,Cc1ccccc1OCCCCN1CCCCC1,12.6%

row,SMILES,"hERG current change (%, negative = inhibition) at 10uM"
1,COc1ccc2[nH]c(=O)c(CN(C(=O)c3cccnc3)c3ccc(C)cc3C)cc2c1,2.21%
2,Cc1ccc(CN2CCN(C3CCC3)CC2CCO)cc1 (stereo not drawn),1.93%
3,O=C1NC(c2ccc(F)cc2)Oc2ccccc21 (stereo not drawn),-1.89%
4,O=C1N=C(N2CCc3ccccc3C2)S/C1=C\c1cccc(O)c1,-6.98%
5,COc1ccc(CNC(=O)C2CCN(S(=O)(=O)c3ccc(-c4nn[nH]n4)cc3)CC2)cc1,-2.06%
6,O=C(O)C1CC1c1ccc(Br)cc1 (stereo not drawn),0.418%
7,CC(=O)c1ccc(NC(=S)Nc2cccc3ccccc23)cc1,-4.66%
8,CC(C)[C@H](CO)Nc1nc(Nc2ccc(Cl)c(C(=O)O)c2)c2ncn(C(C)C)c2n1,16.3%
9,O=C(Nc1nc(-c2cccs2)cs1)C1=COCCO1,-15.9%
10,O=C(OCC(=O)N1CCN(c2ccccc2)CC1)c1nc(Cl)ccc1Cl,-14.3%
11,Cn1c(N/N=C/c2c[nH]c3ccccc23)nc2ccccc21,-46.7%
12,Cc1nc2ccccc2c(=O)n1NC(=O)c1ccc(C(C)(C)C)cc1,2.15%
13,C#CCOCCOCCOCCNc1nc(N2CCN(C(=O)[C@H](CCCCN)n3cc([C@@H](N)C(C)CC)nn3)CC2)nc(N2CCN(C(=O)[C@H](CCCCN)n3cc([C@@H](N)CO)nn3)CC2)n1.Cl (stereo partly drawn),14.3%
14,CN(C)/C=N/c1c(C#N)cnn1C,21.3%
15,O=C(CSc1ccc(Br)cc1)NCC(c1ccco1)N1CCCCC1 (stereo not drawn),-42.8%
16,O=C(O)C(c1ccccc1)C1(O)CCCCC1 (stereo not drawn),22.7%
17,Cc1ccc(SCc2cc(=O)n(C)[nH]2)cc1,20.3%
18,Cc1cc(C)n(-c2c(F)c(F)c(COC(=O)c3ccccc3)c(F)c2F)n1,5.11%
19,Cc1nonc1CN(C)C(=O)CC1C(=O)NCCN1Cc1ccc(F)c(F)c1 (stereo not drawn),15%
20,COc1ccc(Nc2nc(N)nc(CSC(=S)N3CCCCC3C)n2)cc1 (stereo not drawn),0.572%
21,COc1ccc(-c2cc(C(F)(F)F)n3ncc(C(=O)N4CCc5ccccc5C4)c3n2)cc1,5.27%

# Reference: publication PMC4336329 (PLoS ONE, 2015)
